Measurements taken from the supplement of paper PMC12340641.
In all, about 1,000 compounds were measured (“relative growth in counter assay (no AraC = 100%, AraC + DMSO = 0%)”: median about -1.1, highest 2% from about 20 on). Some of the results follow.

The compounds below were run on HEK293FT dCK*-only (assay: relative growth in counter assay (no AraC = 100%, AraC + DMSO = 0%); higher = more growth rescue independent of IKZF1). Details: compound concentration: 5 uM; AraC concentration: 0.3 uM; overnight pretreatment + 4 days AraC.
Procedure: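 Growth recovery screen of the molecular-glue-like (Specs) library. HEK293FT cells expressing a dCK*-IKZF1 fusion (primary) or dCK* alone (counter) were pretreated overnight with compound at 5 uM, then given 0.3 uM AraC for 4 days. Hoechst nuclei were counted by imaging. Primary: normalised to pomalidomide (100%) and DMSO (0%), mean of 2 replicates. Counter: normalised to no-AraC (100%) and AraC+DMSO (0%), single replicate.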

| Structure (SMILES) | relative growth in counter assay [%] |
| --- | --- |
| Cc1nc(Nc2cccc(C3CCCN3C(=O)CCOc3cccc(F)c3)n2)sc1C (stereo not drawn) | 5.41 |
| O=C(C1CCCCC1)N1CCOC(c2cccc(Nc3nccs3)n2)C1 (stereo not drawn) | -5.66 |
| O=C1CCC(N2C(=O)c3cccc(N4CCN(C5CCC(C(=O)O)CC5)CC4)c3C2=O)C(=O)N1 (stereo not drawn) | 2.79 |
| O=C(Nc1ccc(S(=O)(=O)Nc2ncccn2)cc1)C1COc2ccccc2O1 (stereo not drawn) | -0.31 |
| Cc1nc(Nc2cccc(C3CCN(CC(=O)NCc4ccccn4)CC3)n2)sc1C | -1.26 |
| O=C(/C=C/c1ccccc1)N1CCCC(c2csc(Nc3ccccn3)n2)C1 (stereo not drawn) | 34.8 |
| O=C(C1CCCCC1)N1CCOC(c2cccc(Nc3ncc(Cc4ccccc4Cl)s3)n2)C1 (stereo not drawn) | 3.29 |
| O=S(=O)(Nc1ccc(S(=O)(=O)Nc2ncccn2)cc1)c1ccc(F)cc1 | -1.97 |
| Cc1ccc(Cl)cc1NC(=O)CSc1nnc2c(n1)[nH]c1c(C)ccc(C)c12 | 5.08 |
| Cc1csc(Nc2cccc(C3CN(C(=O)CCCc4ccc(F)cc4)CCO3)n2)n1 (stereo not drawn) | 36.2 |
| Nc1nc(N)c2ncn([C@@H]3CCC[C@@H](N)[C@H]3O)c2n1 | -0.08 |
| O=C(CSc1nc2ccccc2n1Cc1ccccc1)Nc1ccccn1 | -0.97 |
| Cc1nc(Nc2cccc(C3CCN(C(=O)c4n[nH]c5c4CCCC5)CC3)n2)sc1C | 14 |
| CC(=O)Nc1ccc(S(=O)(=O)Nc2ccccn2)cc1 | -7.51 |
| Cc1cnc(Nc2cccc(C(CO)C3CCN(C(=O)c4cccc(Cl)c4F)CC3)n2)s1 (stereo not drawn) | -1.22 |
| Cc1cnc(Nc2cccc(C3CN(C(=O)Cn4ccnc4)CCO3)n2)s1 (stereo not drawn) | -7.8 |
| CCCN1CC(C(=O)N2CCC(c3cccc(Nc4ncc(C)s4)n3)CC2)CC1=O (stereo not drawn) | -6.33 |
| O=C(Nc1ccc(S(=O)(=O)Nc2ncccn2)cc1)c1cccc(Br)c1 | -11.3 |
| Cc1cc(C)nc(NS(=O)(=O)c2ccc(NC(=O)/C=C/c3ccccc3)cc2)n1 | 3.78 |
| Cc1cc(C)nc(NS(=O)(=O)c2ccc(NC(=O)c3ncoc3-c3ccccc3)cc2)n1 | 1.41 |
| COc1cc(NS(=O)(=O)c2ccc(NC(=O)c3ccc(OC)c(OC)c3)cc2)nc(OC)n1 | -4.74 |
| Cc1cnc(Nc2cccc(C3CCN(C(=O)C4C5C=CC(C5)C4C(=O)NCC(C)C)CC3)n2)s1 (stereo not drawn) | -18.4 |
| Cc1cc(C)c(S(=O)(=O)Nc2ccc(S(=O)(=O)Nc3ncccn3)cc2)c(C)c1 | -5.1 |
| CCc1ccc(OCC(=O)Nc2ccc(S(=O)(=O)Nc3ccccn3)cc2)cc1 | 4.87 |

| Structure (SMILES) | relative growth in counter assay [%] |
| --- | --- |
| Cc1cc(C)nc(NS(=O)(=O)c2ccc(/N=C3/NC(=O)CS3)cc2)n1 | 5.28 |
| CCOc1ccccc1C(=O)Nc1ccc(S(=O)(=O)Nc2nccc(C)n2)cc1 | -22.1 |
| CCCc1cnc(Nc2cccc(C3CCN(C(=O)C4COCCN4)CC3)n2)s1 (stereo not drawn) | -24.3 |
| Cc1cnc(Nc2cccc(C3CN(C(=O)CCn4cnc5ccccc54)CCO3)n2)s1 (stereo not drawn) | 4.68 |
| Cc1cnc(Nc2cccc(C3CN(C(=O)CCOc4cccc(F)c4)CCO3)n2)s1 (stereo not drawn) | 19.7 |
| Cc1ccnc(NS(=O)(=O)c2ccc(NC(=O)c3ccco3)cc2)n1 | 3.62 |
| CC(C)C(=O)N1CCOC(c2cccc(Nc3nccs3)n2)C1 (stereo not drawn) | -3.79 |
| CCCc1cnc(Nc2cccc(C3CCN(C(=O)[C@@H]4CCCCN4)CC3)n2)s1 | -21.3 |
| COc1nccnc1NS(=O)(=O)c1ccc(N)cc1 | -17.5 |
| Cc1nc(Nc2cccc(C3CCCN3C(=O)C(C)(C)c3cccc(F)c3)n2)sc1C (stereo not drawn) | 6.07 |
| COc1ccc2ccccc2c1/C=N/NS(=O)(=O)c1ccc(C)c([N+](=O)[O-])c1 | -4.04 |
| COc1cc(SC)ccc1C(=O)Nc1ccc(S(=O)(=O)Nc2nccc(C)n2)cc1 | -5.96 |
| NC1(C(=O)N2CCC(c3cccc(Nc4ncc(-c5ccccc5)s4)n3)CC2)CC1 | -4.57 |
| COCCC(=O)N1CCC(c2cccc(Nc3nc(C)c(C)s3)n2)CC1 | 13.8 |
| CCC(=O)Nc1ccc(S(=O)(=O)Nc2ccccn2)cc1 | -0.4 |
| O=C(/C=C/c1ccco1)N1CCC(c2cc3ccccc3c(Nc3nccs3)n2)CC1 | -21.1 |
| N#Cc1ccc(Oc2ccc(N3C(=O)c4ccc(Oc5ccccc5)cc4C3=O)cc2)cc1 | -6.81 |
| Cc1cnc(Nc2cccc(C3CN(C(=O)COc4cccc(F)c4)CCO3)n2)s1 (stereo not drawn) | -7.34 |
| COc1ccc(-c2csc(Nc3ccc(S(=O)(=O)Nc4nc(C)cc(C)n4)cc3)n2)cc1OC | 7.3 |
| Cc1ccnc(Nc2nc(-c3sc(NC(=O)c4ccccc4)nc3C)cs2)c1 | 68.2 |
| O=C(CCc1[nH]nc2c1CCCC2)N1CCC(c2cccc(Nc3nccs3)n2)CC1 | -25.4 |
| CC(=O)N1CCCC1c1cccc(Nc2nccs2)n1 (stereo not drawn) | -7.53 |
| NC(=O)CN1CCCCC1c1csc(Nc2ccccn2)n1 (stereo not drawn) | 8.38 |
| COCCOCC(=O)Nc1ccc(S(=O)(=O)Nc2cc(C)nc(C)n2)cc1 | -4.9 |
